Hit rate of the full screen: of about 150,000 compounds, about 540 (0.36%) showed an effect of 50% or more. This is one part of the list.
Tested on: Plasmodium falciparum
Assay: Primary screen in NF54 nanoGlo assay, in single point, at 2uM, 72h; a lower Z score goes with more inhibition
Format: functional, Erythrocyte
Details: timepoint 72 hour

Structure (SMILES)	% Inhibition [%]	Z score
Cc1c(-c2cncc(C(F)(F)F)c2)cnn1C	-13	1.38
O=S(=O)(NCCc1cnoc1)N1CC2CCC1C2 (stereo not drawn)	-1	0.24
Cc1c(NC(=O)COC(=O)c2ccc(-c3ccccc3)cc2)c(=O)n(-c2ccccc2)n1C	-1	0.18
CC(C)c1ccc(NC(=O)C2CC3CC(N)C3C2)cn1 (stereo not drawn)	-9	1.76
CC1(C)C[C@H](NC(=O)c2conc2C(C)(C)N)c2ccccc2O1	-7	1.25
O=C(CNC(=O)c1ccc(-c2cscn2)cc1)Nc1cccnc1	-14	2.08
Cc1noc(-c2cccnc2NCCN2CCOCC2(C)C)n1	-9	0.96
COc1ccc(C)cc1NC(=O)[C@@H]1CCCN1C(=O)C1CC(=O)C1	-12	1.18
CCN(CC(=O)NCC(F)(F)F)c1cccc(O)c1	4	-0.73
C=CCNC(=O)N(C)Cc1cnc(CC)s1	-5	0.96
CCCCc1nc(C)c(C(=O)N2CCNC(=O)C2)s1	1	-0.12
COC(=O)c1cc(C)nc(N[C@@H](CO)C(C)(C)C)n1	22	-2.82
O=C(c1ccc2oc(-c3ccc(C(F)(F)F)cc3)nc2c1)N1CCOCC1	-2	0.27
O=C(NC[C@H]1C[C@@H]1C(F)(F)F)N1CC2(CCCO2)C1	2	-0.31
Cc1n[nH]c(C)c1[C@@H](N)C(=O)NCc1cc(-c2ccccc2Cl)no1	-12	1.81
N[C@H]1CCN(C(=O)Cc2cccc(Cl)c2)C[C@@H]1O	-7	1.54
O=C1CCc2cc(S(=O)(=O)N3Cc4ccccc4C[C@H]3C(=O)N3CCCC3)ccc2N1	-4	0.73
CS(=O)(=O)C1(CNc2ncc(Cl)cc2F)CC1	-4	0.44
O=C1CC[C@@H](C(=O)NCC2(c3cccs3)CCCCC2)N1	-6	0.75
Cc1noc(CCCN(C)Cc2ccccc2Cl)n1	-15	2.32
CCc1nc(CN(C)c2nc(C)cc(C)c2C#N)no1	-2	0.42
CCN1C[C@H](CN(C)C(=O)NCc2cccnc2)Oc2ccccc21	7	-0.88
O=C(O)c1c(NC(=O)c2cccc3ccccc23)sc2c1CCCC2	-8	1.33
CC(C)(C)CN1CCC[C@@]2(CCN(C(=O)Nc3ccccc3Cl)C2)C1=O	-4	0.68

From ChEMBL document CHEMBL4888484, “Replenishing the malaria drug discovery pipeline: Screening and hit evaluation of the MMV Hit Generation Library 1 (HGL1) against asexual blood stage Plasmodium falciparum ,using a nano luciferase reporter read-out” (2022)
